Screen size: about 310,000 compounds; about 2,200 (0.71%) showed an effect of 50% or more. The effect is printed as a negative number. Some of the results follow.
biological target: human ether-à-go-go-related gene (hERG) potassium channel (human, UniProt Q12809); test: primary screen, population patch clamp on CHO cells stably expressing hERG
Sequence (Q12809 whole entry, looked up): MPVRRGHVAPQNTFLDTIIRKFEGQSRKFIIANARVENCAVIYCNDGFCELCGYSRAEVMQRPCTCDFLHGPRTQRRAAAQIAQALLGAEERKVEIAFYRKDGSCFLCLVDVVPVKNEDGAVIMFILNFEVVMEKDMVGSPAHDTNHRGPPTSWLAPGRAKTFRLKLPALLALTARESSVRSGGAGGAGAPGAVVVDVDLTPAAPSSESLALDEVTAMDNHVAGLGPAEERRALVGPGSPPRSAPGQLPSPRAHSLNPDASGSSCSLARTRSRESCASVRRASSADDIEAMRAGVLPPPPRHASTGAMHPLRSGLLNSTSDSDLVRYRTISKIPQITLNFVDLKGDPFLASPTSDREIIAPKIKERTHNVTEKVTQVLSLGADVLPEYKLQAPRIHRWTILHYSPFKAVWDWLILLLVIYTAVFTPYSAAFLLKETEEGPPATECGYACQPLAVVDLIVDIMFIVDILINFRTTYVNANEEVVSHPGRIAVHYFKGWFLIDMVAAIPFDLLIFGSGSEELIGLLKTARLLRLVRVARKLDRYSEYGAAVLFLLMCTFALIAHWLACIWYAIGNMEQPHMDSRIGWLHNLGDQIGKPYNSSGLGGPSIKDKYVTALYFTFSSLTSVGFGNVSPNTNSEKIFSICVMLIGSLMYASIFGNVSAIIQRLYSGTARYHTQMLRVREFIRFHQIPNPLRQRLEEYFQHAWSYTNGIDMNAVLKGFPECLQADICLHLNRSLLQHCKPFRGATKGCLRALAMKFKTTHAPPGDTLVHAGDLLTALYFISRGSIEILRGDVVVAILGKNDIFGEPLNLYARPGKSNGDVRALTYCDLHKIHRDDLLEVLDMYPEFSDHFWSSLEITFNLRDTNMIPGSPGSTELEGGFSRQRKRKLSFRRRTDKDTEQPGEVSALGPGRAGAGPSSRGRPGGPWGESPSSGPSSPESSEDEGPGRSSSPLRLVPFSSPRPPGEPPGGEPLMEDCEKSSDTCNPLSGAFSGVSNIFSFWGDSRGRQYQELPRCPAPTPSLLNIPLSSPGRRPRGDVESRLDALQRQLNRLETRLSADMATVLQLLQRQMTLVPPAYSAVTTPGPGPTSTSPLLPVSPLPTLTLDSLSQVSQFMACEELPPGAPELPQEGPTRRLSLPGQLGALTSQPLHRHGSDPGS

Row | Compound | hERG current change (%, negative = inhibition) at 1uM [%]
1 | S=c1[nH]nc(-c2ccco2)n1/N=C/c1cccs1 | 19.2
2 | Cc1onc(-c2c(F)cccc2Cl)c1C(=O)Nc1nccs1 | 6.96
3 | CCn1c(SCC(=O)Nc2ccccc2N2CCCCC2)nc2c1c(=O)n(C)c(=O)n2C | 1.86
4 | O=C(NC(=S)N1CCOCC1)c1ccccc1Cl | 15.4
5 | CCOC(=O)c1c(-c2ccc(C)cc2)csc1NC(=O)CCN1CCOCC1 | 6.99
6 | CCCCn1c(N)c(N(CCOC)C(=O)COC(=O)COc2cc(C)c(Cl)cc2C(C)C)c(=O)[nH]c1=O | 4.04
7 | Cc1ccc(N(C(C)C(=O)O)S(=O)(=O)c2cccnc2)cc1 (stereo not shown) | 14.7
8 | CCCOc1ccc(Cc2c(O)nc(SC)[nH]c2=O)cc1C | 14.8
9 | Nc1nc(SCC(=O)Nc2cc(S(=O)(=O)N3CCOCC3)ccc2Cl)n[nH]1 | 9.37
10 | O=C(Nc1ccc2c(c1)nc1n2CCOC1)c1ccccc1 | 5.91
11 | OC(CN1CCOCC1)C12CC3CC(CC(C3)C1)C2 (stereo not shown) | 8.31
12 | O=C(NCc1cccnc1)c1nc(-c2cccs2)no1 | 2.19
13 | CC(C)n1cnc2c(Nc3ccc(C(=O)O)cc3)nc(Cl)nc21 | 16
14 | CC(OC(=O)CCc1nc2ccccc2c(=O)[nH]1)C(=O)Nc1ccc2c(c1)OCO2 (stereo not shown) | 14.8
15 | Cc1nc(C)n(CC(C)C(=O)N2CCN(S(=O)(=O)c3ccccc3)CC2)n1 (stereo not shown) | 13.5
16 | COC(=O)CCCC1=CC2=C(c3ccccc3)C(=O)C(C)(OC(=O)C3CCCC3)C(=O)C2=CN1Cc1ccc2c(c1)OCO2 (stereo not shown) | 15.3
17 | CCC(=O)Nc1cccc(SC)c1 | 22
18 | O=c1c2ccccc2nc2ccc(N3CCOCC3)nn12 | 0.277
19 | COc1ccc2oc(=O)c(-c3nc(C)cs3)cc2c1 | 4.92
20 | O=C(CSc1nc(-c2ccc(F)cc2)cs1)NC(=O)NCc1ccco1 | 4.13
21 | Cc1ccccc1-n1c(SCC(=O)Nc2ccc3c(c2)OCO3)nnc1-c1ccccn1 | -9.48
22 | CC(=O)N1c2ccc(S(=O)(=O)NCC3CCC(C(=O)Nc4cccc(C)n4)CC3)cc2CC1C (stereo not shown) | -5.64
23 | Cc1c(C(=O)NNC(=O)Nc2ccc([N+](=O)[O-])cc2)oc2ccccc12 | 14.2
24 | CCCNC(=O)Cc1ccsc1 | 14.4
25 | CCOC(=O)Cc1c(C)nc2cc(C)nn2c1C | 6.15

Reference: paper PMC4336329 (PLoS ONE, 2015)
